{"source": "the RNAGym collection of RNA variant scans (doi:10.1073/pnas.2313332121)", "parents": {"B1": {"name": "TPR 5TU (parent)", "chain": "GGAUCUUCUCGAUCUAACAAAAAAGACAAAUCUGCCACAAAGCUUGAGAGCAUCUUCGGAUGCAGAGGCGGCAGCCUUCGGUGGCGCGAUAGCGCCAACGUUCUCAACUAUGACACGCAAAACGCGUGCUCCGUUGAAUGGAGUUUAUCAUG"}}, "note": "Variants at the background level are over-represented here.", "data": [{"variants_of": "B1", "experiment": "polymerase ribozyme fitness, log enrichment relative to wild type (log ratio); higher = more active; in vitro selection for triplet polymerase activity", "summary_of_the_method": "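A heterodimeric triplet polymerase ribozyme had each of its subunits mutagenized by PCR into a library, which was transcribed. One round of in vitro selection, done in triplicate, annealed each library with a biotinylated primer, its partner subunit and triplets, then incubated it frozen at −7 °C before gel excision of extended constructs, streptavidin-bead capture and RT-PCR. Fitness is the logarithm of genotype enrichment relative to wild-type enrichment, based on Illumina sequencing of inputs and outputs and inverse-variance-weighted replicate averages. A base-2 logarithm is used, and genotypes were kept only with ≥10 input reads and ≥1 read per output.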", "values": [{"variant": "GGAUCUUCUCGAUCUAACAAAAAAGACAAAUGUGCCACAAAGCUUGAGAGCAUCUUCGGAUGCAGAGGCGGCAGCCUUCGGUGGCGCGAUAGUGCCAACGUUCUCAACUAUGACACGCUAAACGCGUGCUCCGUUGAAUGGAGUUUUUCAUG", "note": "[C32G C93U A119U A147U]", "polymerase ribozyme fitness (log ratio)": "≤ -4.2"}, {"variant": "GGAUCUUCUCGAUCUAACAAAAAAGACAAAUGUGCCACAAAGCUUGAGAGCAUCUUCGGAUGCAGAGGCGGCAGCCUUCGGUGGCGCGAUAGCGCUAACGUUCUCAACUAUGACAGGCAAAACGCGUGCUCCGUUGAAUGUAGUUUAUCAUG", "note": "[C32G C96U C116G G141U]", "polymerase ribozyme fitness (log ratio)": "≤ -4.2"}, {"variant": "GGAUCUUCUCGAUCUAACAAAAAAGACAAAUGUGCCACAAAGCUUGAGAGCAUCUUCGGAUGCAGAGGCGGCAGCCUUCGGUGGCGCGAUAGCGCCAAUGUUCUCAACUAUGACACGCAAAACGCGUGCUCCGUUGAAUGGAGUUUAUCAUG", "note": "[C32G C99U]", "polymerase ribozyme fitness (log ratio)": "≤ -4.2"}, {"variant": "GGAUCUUCUCGAUCUAACAAAAAAGACAAAUGUUCCACAAAGCUUGAGAGCAUCUUCGGAUGCAGAGGAGGCAGCCUUCGGUGGCGCGAUAGCGCCAACGUUCUCAACUAUGACACGCAAAACGCGUGCUCCGUUGAAUGGAGUUUAUCAUG", "note": "[C32G G34U C69A]", "polymerase ribozyme fitness (log ratio)": "≤ -4.2"}, {"variant": "GGAUCUUCUCGAUCUAACAAAAAAGACAAAUGUGCCACAAAACUUGAGAACCACUACGGAUGCAGAGGCGGCAGCCUUCGGUGGAGCGAUAGCGCCAACGUUCUCAACUUUGACACGCAAAACGCGUGCUCCGUUGAAUGGAGUUUAUCAUG", "note": "[C32G G42A G50A A52C U53A U56A C85A A110U]", "polymerase ribozyme fitness (log ratio)": "≤ -4.2"}, {"variant": "GGAUCUUCUCGAUCUAACAAAAAAGACAAAUGUGCCACAAAACUUGAGAGCAUCUUCGGAUGCAGAGGCGGCAGCCCUCGGUGUCGCGAUAGCGCCAACGUUCUCAACUAUGACACGCAAAACGCGUGCUCCGUUGAAUGGAGUUUAUCAUG", "note": "[C32G G42A U77C G84U]", "polymerase ribozyme fitness (log ratio)": "≤ -4.2"}, {"variant": "GGAUCUUCUCGAUCUAACAAAAAAGACAAAUGUGCCACAAACCUUGAGUGCAUCUUCGGAUGCAGAGGCGGCAGCCUUCGGUGGCGCGAUAGCGCCAACGUUCUCAGCUAUGACACGCAAAACGCGUGCUCCGUUGAAUGGAGUUUAUCAUG", "note": "[C32G G42C A49U A107G]", "polymerase ribozyme fitness (log ratio)": "≤ -4.2"}, {"variant": "GGAUCUUCUCGAUCUAACAAAAAAGACAAAUGUGCCACAAACCUUGAGUGCAUCUUCGGAUGCAGAGGCGGCAGCCUUCGGUGGCGCGAUAGCCACAACGUUCUCAACUAUGACACGCAAAACGCAUGCUCCGUUGAAUGGAGUUUAUCAUG", "note": "[C32G G42C A49U G94C C95A G126A]", "polymerase ribozyme fitness (log ratio)": -3.97}, {"variant": "GGAUCUUCUCGAUCUAACAAAAAAGACAAAUGUGCCACAAACCUUGAGAGCCUCUUCGGAUGCAGAGGCGGCAGCCUUCGGUGGCGCGAUAGCGCCAACGUUCUCAGCUGUGACACGCAAAACGCGUGCUCCGUUGAGUGGAGUUUAUCAUG", "note": "[C32G G42C A52C A107G A110G A138G]", "polymerase ribozyme fitness (log ratio)": "≤ -4.2"}, {"variant": "GGAUCUUCUCGAUCUAACAAAAAAGACAAAUGUGCCACAAACCAUGAGAGCAUCUUCGGAUGCAGAGGCGGCAGCCUUCGGUGGCGCCAUAGCGUCAACGUUGUCAACUAUGACACGCAAAACGCGUGCUCCGUUGAAUGGAGUUUAUCAUG", "note": "[C32G G42C U44A G88C C95U C103G]", "polymerase ribozyme fitness (log ratio)": "≤ -4.2"}, {"variant": "GGAUCUUCUCGAUCUAACAAAAAAGACAAAUGUGCCACAAAGCUUAAGAGCGACUUCGGUUGCAGAGGCGGCAGCCUUCGGUGGCGAGUUAGCGCCAACGUUCUCAACUAUGACACGCAAAACGCGUGCUCCGUUGAAUGGUGUUUAUCAUG", "note": "[C32G G46A A52G U53A A60U C87A A89U A142U]", "polymerase ribozyme fitness (log ratio)": "≤ -4.2"}, {"variant": "GGAUCUUCUCGAUCUAACAAAAAAGACAAAUGUGCCACAAAGCUUCAGAGCAUCUUCGGAUGCAGAGGCGGCAGCCUUCGGUGGCGCGAUAGCGCCAACGUUCUUAACUAUGACACGCAUAACGCGUGCUCCGUUGAAUGGAGUUUAUCAUG", "note": "[C32G G46C C105U A120U]", "polymerase ribozyme fitness (log ratio)": "≤ -4.2"}, {"variant": "GGAUCUUCUCGAUCUAACAAAAAAGACAAAUGUGCCACAAAGCUUGAAAGCAUCUUAGGAUGCAGCGGCGGCAGCCUUCGGCGGCGCGAUAGUGCCAACGUUCUCAACUAUGACACGCAAAACGCGUGCUCCGUUGAAUGGAGUUUAUCAAG", "note": "[C32G G48A C57A A66C U82C C93U U151A]", "polymerase ribozyme fitness (log ratio)": "≤ -4.2"}, {"variant": "GGAUCUUCUCGAUCUAACAAAAAAGACAAAUGUGCCACAAAGCUUGAAAGCAUCUUCGGAUCCAGAGGCGGCAGCCUUCGGUGGCGCGAUAGCGCUAACGUUCUCAACUAUGAAACGCAAAACGCGUGCUCCGUUGAAUGGAGUUUAUCAUG", "note": "[C32G G48A G62C C96U C114A]", "polymerase ribozyme fitness (log ratio)": "≤ -4.2"}, {"variant": "GGAUCUUCUCGAUCUAACAAAAAAGACAAAUGUGCCACAAAGCUUGAAAGCAUCUUCGGAUGCAGAGACGGCAGCCUUCGGUGGCGCGAUAGCGCCAACGUUAUCAACUAUGAAACGCAAAACGCGUGCUCCGUUGAAUGGAGUUAAUCAUG", "note": "[C32G G48A G68A C103A C114A U146A]", "polymerase ribozyme fitness (log ratio)": "≤ -4.2"}, {"variant": "GGAUCUUCUCGAUCUAACAAAAAAGACAAAUGUGCCACAAAGCUUGAAAGCAUCAUCGGAUGCAGAGGCGGCAGCCUUCGGUGGCGCGAUUGCGACAACGUUCUCAACUAUGACACCCAAAGCGCGUGCUCCGGUGAAUGGAGUUUAGCAUG", "note": "[C32G G48A U55A A91U C95A G117C A122G U134G U148G]", "polymerase ribozyme fitness (log ratio)": "≤ -4.2"}, {"variant": "GGAUCUUCUCGAUCUAACAAAAAAGACAAAUGUGCCACAAAGCUUGACAGCACCUUCGGAUGCAGAGGCGGCAGCCUUCGGGGGCGCGAUAGCGCCAACGUUCUCAACUAUGACACGCAAAACGCGUGCUCCGUUGAAUGGAGUUUAUCAUG", "note": "[C32G G48C U53C U82G]", "polymerase ribozyme fitness (log ratio)": "≤ -4.2"}, {"variant": "GGAUCUUCUCGAUCUAACAAAAAAGACAAAUGUGCCACAAAGCUUGAGAACAUCUUCGGAUGCAGAGGCGGCAGCCUUUGGUGGCGCGAUAGCGCCAACGUUCUCAACUAUGACACGCAAAACGCGUGCUCCGUUGAAUAGGGUUUAUCAUG", "note": "[C32G G50A C79U G140A A142G]", "polymerase ribozyme fitness (log ratio)": "≤ -4.2"}, {"variant": "GGAUCUUCUCGAUCUAACAAAAAAGACAAAUGUGCCACAAAGCUUGAGAUCAUCUUCGGAUGCAGAGGCGGCAGCCUUGGGUGGCGCUAUAGCCCCAACGCUCUCAACUAUGACACGCAAAACGAGUGCUCCGUUGAAUGGAGUUUAUCAUG", "note": "[C32G G50U C79G G88U G94C U101C C125A]", "polymerase ribozyme fitness (log ratio)": "≤ -4.2"}]}]}
